Assay results from PubChem BioAssay AID504832 (National Center for Advancing Translational Sciences (NCATS), 2011).
Out of some 310,000 compounds screened, about 18,000 (5.8%) were called active. Inconclusive results, whose numbers are uncertain, are shown with a selection of clear calls. Calls follow the shape of the dose curve; as a rule, active = well fitted inhibition curve with a large enough effect; inconclusive = small, poorly fitted or top-dose-only effect, or another doubt; inactive = no such curve, though single readings can be large or run the other way. No potency is given beside an inconclusive call; the fits are too rough.

assay: Primary qHTS for delayed death inhibitors of the malarial parasite plastid, 48 hour incubation; conditions: P. falciparum luciferase growth in erythrocytes; series mostly up to 28.7 µM; activity change, negative = inhibition: at the top concentration
Outline: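 Cell-based growth assay: transgenic P. falciparum expressing firefly luciferase, cultured in red cells within RPMI 1640 containing 0.5% w/v Albumax, 24 mM bicarbonate and gentamycin. A drop in luciferase activity indicates inhibition.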
% is scaled to controls: 0 for no effect and ±100 for the full control effect; potency is read from the fitted curve at half-maximal effect; tags tell the direction and shape of the fitted curve.

Row | Structure (SMILES) | Potency | activity change, negative = inhibition
1 | COc1ccccc1/C=C/C(=O)NC(=S)NCC1CCCO1 (stereo not given) | inconclusive [inhibitor, single point] | 
2 | CS(=O)(=O)c1ccc(C(=O)Nc2cccc(-c3nc4ccccc4[nH]3)c2)cc1 | inconclusive [inhibitor, partial curve] | 
3 | C[C@@H](NC(=O)c1nc[nH]c1C(=O)N[C@H](C)c1ccccc1)c1ccccc1 | inconclusive [inhibitor, single point] | 
4 | C=CCc1ccc(OCC(O)CN2CCN(c3ccccc3)CC2)c(OC)c1 (stereo not given) |  | inactive: -3.32% [at 0.00184 µM]
5 | CCOC(=O)Cc1cc(=O)[nH]c(Nc2nc3ccccc3o2)n1 | inconclusive [inhibitor, single point] | 
6 | COc1cc(NC(=O)C2=C(C)OCCS2)c(Cl)cc1C(=O)NCCN(C)C |  | inactive: -5.39%
7 | Cc1[nH]c2ccccc2c1SCc1n[nH]c(=S)n1C |  | inactive: 9.45%
8 | Cc1noc(C)c1COc1ccccc1C(=O)NCCc1ccccc1 | inconclusive [inhibitor, single point] | 
9 | Cc1cccc(-n2c(SCC(=O)c3c(N)n(C4CC4)c(=O)[nH]c3=O)nnc2N2CCOCC2)c1 | inconclusive [inhibitor, single point] | 
10 | CNC[C@@H](CC1CCCCC1)NC[C@H](CC(C)C)NCCc1cccc(C(F)(F)F)c1 | inconclusive [inhibitor, full curve] | 
11 | c1coc(CN2CNc3nc4ccccc4n3C2)c1 |  | inactive: -1.15%
12 | O=C(c1cc(C2CC2)on1)N1CCCC(N2CCN(c3cccc(C(F)(F)F)c3)CC2)C1 (stereo not given) | active: 11.7 µM | 
13 | Cn1cccc1Cc1nnc(SCC(=O)Nc2ccc(F)cc2F)n1-c1ccc(F)cc1 | inconclusive [inhibitor, partial curve] | 
14 | O=C(NC(=S)NCc1cccnc1)c1cccc2ccccc12 |  | inactive: -18.6%
15 | CC(C)OC(=O)CSc1nnnn1-c1ccc2c(c1)OCCO2 |  | inactive: 80.2%
16 | CCOc1ccc2nc(N3CCC(C(=O)N4CCN(c5ccccn5)CC4)CC3)sc2c1 | inconclusive [inhibitor, partial curve] | 
17 | CCOc1ccc(N2CC(C(=O)Nc3ccccc3OC)CC2=O)cc1 (stereo not given) | inconclusive [inhibitor, full curve, poor fit] | 
18 | COc1ccc(-n2c(=O)cc(N3CCCCCC3)[nH]c2=O)cc1 |  | inactive: 9.52%
19 | CC(C)Oc1cccc(C(=O)N/N=C/c2coc3ccccc3c2=O)c1 |  | inactive: 16.7%
20 | Cc1ccc(SC[C@H](Cc2ccccc2)N2CCN(CC(C)C)CCC2=O)cc1 | inconclusive [inhibitor, partial curve] | 
